About 1,200 (2.5%) of roughly 48,000 compounds were called active. Another 2% or so got no clear call; they are omitted.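 Rule for the calls: active = activation of at least 60% and not above a set upper limit (about 1 call in 100 departs from these limits); inconclusive = activation of 40% to 60%, or above that upper limit; inactive = activation under 40%.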 The list shows a part of the results.
The compounds below were run against Probable G-protein coupled receptor 32 (Homo sapiens) (UniProt O75388) (assay: qHTS for Agonists of Human Resolvin D1 Receptor DRV1). Conditions: CHO-K1 GPR32 beta-arrestin PathHunter luminescence, 90 min; at 76.9 µM; stronger effect = higher value; zero percent set by DMSO-only wells.
How it was run: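 PathHunter beta-arrestin recruitment in CHO-K1 cells stably expressing ProLink-tagged GPR32. Cells were exposed to compound for 90 min at 37 C, then chemiluminescence was read after 1 h detection at ambient temperature; DMSO served as basal control.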
Note: 0% is about no effect.

Chain of UniProt O75388 (O75388 whole entry, looked up): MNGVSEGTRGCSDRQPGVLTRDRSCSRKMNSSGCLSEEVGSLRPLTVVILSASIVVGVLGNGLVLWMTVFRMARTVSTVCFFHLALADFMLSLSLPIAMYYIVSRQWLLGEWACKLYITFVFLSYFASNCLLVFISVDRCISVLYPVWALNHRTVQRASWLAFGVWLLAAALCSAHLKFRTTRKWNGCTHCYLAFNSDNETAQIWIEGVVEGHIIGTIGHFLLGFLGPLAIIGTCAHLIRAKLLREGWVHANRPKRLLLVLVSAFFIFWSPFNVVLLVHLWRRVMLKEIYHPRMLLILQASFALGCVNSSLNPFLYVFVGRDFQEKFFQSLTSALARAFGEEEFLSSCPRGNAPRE

activation, inactive:
Cc1ccc(CNC(=O)CC(C)CC2=NS(=O)(=O)c3ccccc3N2)cc1 (stereo not drawn) -0.4%
Cc1ccsc1CN(C(=O)c1oc2ccc(F)cc2c1C)C1CCS(=O)(=O)C1 (stereo not drawn) -26.5%
CCOc1ccccc1NC(=O)N(Cc1ccc(F)cc1)C1CCN(CC)CC1 -23.3%
Cc1ccc(NC(=O)C2CCCN2S(=O)(=O)c2cccc3nsnc23)c(C)c1 (stereo not drawn) 7.96%
CCOc1ccc(-c2nonc2NC(=O)c2oc3cc(C)c(C)cc3c2C)cc1OCC -4.42%
Cc1ccc(Nc2ncc(C(=O)N3CCN(c4ccc(F)cc4)CC3)c3ccccc23)cc1Cl -11.8%
COc1cccc(CNS(=O)(=O)c2cc3[nH]c(=O)c(=O)[nH]c3cc2C)c1 20.4%
CCc1ccc(NC(=O)c2ccc(F)c(S(=O)(=O)N3CCC4(CC3)OCCO4)c2)cc1 0.0534%
Cc1ccc(C)c(-n2c3nc(=O)[nH]c(=O)c-3cc3c(C)nn(-c4ccccc4)c32)c1 -2.39%
CCCCCn1c(=O)[nH]c2cc(C(=O)NCc3ccc(Cl)cc3)ccc2c1=O 2.8%
COc1ccccc1C(=O)NCCn1cc(SCc2ccc(C)cc2)c2ccccc21 -23%
CCC1CCc2nc3sc(C(=O)Nc4ccc(C)cc4)c(N)c3cc2C1 (stereo not drawn) -13.2%
COc1ccc(OC)c2sc(N3CCN(C(=O)c4ccc5c(c4)CCCC5)CC3)nc12 -4.21%
COc1ccc(C2CC(=O)N(Cc3ccc(F)cc3)c3ccccc3S2)cc1OC (stereo not drawn) 14.1%
O=C(CN1CCN(Cc2cccc(Cl)c2)C1=O)NCc1ccc(F)cc1 0.266%
CCN(c1ccccc1C)S(=O)(=O)c1ccc(N2CCCCS2(=O)=O)cc1 -11.4%
CCc1ccccc1NS(=O)(=O)c1ccc2c(c1)CCN2C(=O)C1CC1 -7.89%
CCc1ccc(-c2nn(CC(=O)NC3CCCCC3)c3c2cnc2ccc(C)cc23)cc1 -6.63%
c1ccc(N2CCN(Cc3cccn3-c3nnc(N4CCN(C5CCCCC5)CC4)s3)CC2)cc1 28.4%
CCOc1ccc(CCNC(=O)c2nn(-c3ccc(OC)c(Cl)c3)c(=O)c3c2c2ccccc2n3C)cc1OCC -11.8%
Cn1c(=O)c2cc(C(=O)NCCCN3CCN(c4cccc(Cl)c4)CC3)sc2c2ccccc21 7.69%
Cc1nn(-c2ccccc2)c(-n2cccc2)c1C(=O)NCCc1ccc(Cl)cc1 -9.46%
O=C(COc1ccc(Br)cc1Cl)Nc1ncn[nH]1 11.6%
